Among all 48,000 compounds or so, about 450 (0.94%) were called active. Another 19% or so got no clear call; they are omitted. Calls follow the shape of the dose curve; as a rule, active = well fitted inhibition curve with a large enough effect; inconclusive = small, poorly fitted or top-dose-only effect; inactive = no such curve, though single readings can be large or run the other way. This is one part of the list.

A short description of the assay: Primary qHTS for Identification of Small Molecule Inhibitors of Huntingtin Promoter Activity. Also: nearly all actives have a fitted effect of over 50% in size. The conditions noted are these: HEK293 HTT promoter firefly luciferase reporter (activity 0% = vehicle and -100% = no light), 24 h; series mostly up to 57.5 µM; activity change, negative = inhibition: at the top concentration. A digest of the protocol: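 HEK293 cells carrying firefly luciferase reporters were seeded at 2,500 per well in Opti-MEM and cultured for 24 h. They were then treated with compounds at up to 57.5 uM final for 24 h at 37 degrees C before Dual-Glo luminescence readout.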
(In general: Quantitative high-throughput screening tests each substance at several concentrations.)
Regarding `CCOC(=O)c1ccc(NC(=O)CSc2nc3c(c(=O)[nH]2)CN(Cc2ccccc2)CC3)cc1`, the “activity change, negative = inhibition” value is inactive: -21.9%. Turning to `COc1ccc(OC)c(CCNC(=O)CCCn2c(=O)c3cccn3c3ccc(F)cc32)c1`, the “activity change, negative = inhibition” value is inactive: -2.44%. For the compound `Cc1cc(F)ccc1NC(=O)CCS(=O)(=O)c1cc2c(cc1C)NC(=O)CO2`, the “activity change, negative = inhibition” value was inactive: -18.3%.

With `COc1ccccc1Nc1ncc2c(n1)CCN(Cc1ccc(C)s1)C2`, the “activity change, negative = inhibition” value was inactive: 3.96%.

With `Cc1ccc2c(=O)c(C(=O)c3cccc(Cl)c3)cn(CC(=O)NC3CCCCC3)c2n1`, the “activity change, negative = inhibition” value was inactive: -1.29%.

Take `Cc1ccc(N(CC(=O)N2CCN(c3ccc(F)cc3)CC2)S(=O)(=O)c2c(C)noc2C)cc1`: the “activity change, negative = inhibition” value is inactive: -24.1%. The value for `COc1cccc(CNC(=O)Cn2ncc3c(=O)oc4ccccc4c32)c1` was inactive: -5.68%; that for `Cc1ccc(CSc2cn(CC(=O)N3CCCCCC3)c3ccccc23)cc1` was inactive: -14.3%; that for `CCCN(Cc1cc2cccc(C)c2[nH]c1=O)C(=O)c1cccc(Cl)c1` was inactive: -15.7%.

Consider `COCCCNC(=O)c1ccc(CSc2nc3cccnc3n2Cc2ccc(OC)cc2)cc1`, for which the “activity change, negative = inhibition” value was inactive: -10.6%.

Take `Cc1cc(C)c(S(=O)(=O)Nc2ccc3oc4c(c3c2)CCCC4)cc1C`: the “activity change, negative = inhibition” value was inactive: -31.5%. The value for `CCOC(=O)c1ccccc1NC(=O)CSc1c(C)cnc2c1c(=O)n(C)c(=O)n2C` was inactive: -3.81%; that for `Cc1nc2c(c(C)c1CCC(=O)N1CCN(c3ccccc3)CC1)c(=O)n(C)c(=O)n2C` was inactive: -13%. For `COc1ccc(C2C=C(c3ccccc3)Nc3nc(NS(=O)(=O)c4ccccc4)nn32)cc1` (stereo unspecified), the “activity change, negative = inhibition” value was inactive: -8.29%. The value for `O=C(Nc1cccc(Cl)c1Cl)c1cc(S(=O)(=O)N2CCCCC2)ccc1F` was inactive: -19.3%; that for `COc1cccc(NC(=O)c2c(-c3ccc(C)cc3)nnc3ccccc23)c1` was inactive: 32.2%. On to `Cc1ccc(C)c(Cn2c(=O)n(-c3ccc(Cl)cc3)c(=O)c3c4c(sc32)CCC4)c1`, for which the “activity change, negative = inhibition” value is inactive: -4.54%. The value for `O=C(CCNNC(=O)c1ccncc1)NCc1ccccc1` was inactive: -6.19%; that for `COc1ccc(OC)c(S(=O)(=O)NCCc2sc(-c3cccnc3)nc2C)c1` was inactive: -3.74%. Take `CC(=O)OC1=CN(Cc2ccccc2)S(=O)(=O)c2ccccc21`: the “activity change, negative = inhibition” value is inactive: -15.3%. As for `CCCN(Cc1cccs1)C(=O)Nc1cc(C)ccc1OC`, the figure is inactive: -7.3%. Take `COc1ccccc1N1CCN(c2nc3ccc(C(=O)c4ccccc4)cc3n3c(C)nnc23)CC1`: the “activity change, negative = inhibition” value was inactive: 4.99%.

In the case of `CCc1nn(CC(=O)Nc2ccc(C)c(F)c2)c(=O)c2cc3cc(C)ccc3n12`, the “activity change, negative = inhibition” value is inactive: 26.6%. The value for `COc1ccc(OC)c(CNC(=O)C2CCN(S(=O)(=O)N3CCCCC3)CC2)c1` was inactive: -16.6%; that for `O=C(COc1ccc(F)cc1)Nc1ccc2nc(SCC(=O)N3CCCC3)sc2c1` was inactive: -28.2%; that for `COc1ccccc1N1CCN(C2C(=O)c3ccccc3N2C(C)=O)CC1` (stereo unspecified) was inactive: -31.1%. The value for `Cc1ccc(-c2cn3c(n2)sc2cc(C(=O)NCCC4=CCCCC4)ccc23)c(C)c1` was inactive: 29.1%.

Turning to `CCOc1ccc(S(=O)(=O)NCC(c2ccc(N(C)C)cc2)N2CCCC2)cc1` (stereo unspecified), the “activity change, negative = inhibition” value was inactive: -0.0955%. As for `CCOc1ccc(-c2nnc(SCC(=O)Nc3ccccc3C(F)(F)F)o2)cc1`, the figure is inactive: -28.6%; as for `Cc1cccc(C)c1NC(=O)c1cc(S(N)(=O)=O)c(Cl)cc1O`, inactive: 10.2%; as for `CCOc1ccc(OCC)c(NC(=O)c2nnn(Cc3cc(Br)ccc3OC)c2N)c1`, inactive: -12.8%. As for `COCCCNC(=O)c1cn(CC(C)C)c(=O)c2c1c1ccccc1n2C`, the figure is inactive: -5.34%; as for `COCCn1c(CNC(=O)c2cccc(N(C)C)c2)nc2cccnc21`, inactive: 44.7%; as for `Cc1ccc(NC(=O)c2nc(S(C)(=O)=O)ncc2N(Cc2ccco2)Cc2ccccc2F)c(C)c1`, inactive: -23.6%. The value for `CCN(Cc1ccccc1)C(=O)CCS(=O)(=O)c1cc2c(cc1Cl)NC(=O)CO2` was inactive: -8.29%. As to `CCCOc1ccc(C2c3c(oc4ccccc4c3=O)C(=O)N2c2ccc(C)cn2)cc1OCC` (stereo unspecified), the “activity change, negative = inhibition” value was inactive: -0.151%. With `Cc1nc2ccccn2c(=O)c1CCN1CCC(C(=O)c2ccc(F)cc2)CC1`, the “activity change, negative = inhibition” value was inactive: -7.52%. As for `Cc1ccc(CCNC(=O)c2ccc3c(=O)n(-c4ccc(C)cc4)c(=O)[nH]c3c2)cc1`, the figure is inactive: 1.73%; as for `CCOc1cccc2sc(NC(=O)c3ccc(S(=O)(=O)N4CCCc5ccccc54)cc3)nc12`, inactive: -23.4%. With `Cc1ccccc1S(=O)Cc1ccc(C(=O)NC2CCCCCC2)o1` (stereo unspecified), the “activity change, negative = inhibition” value was inactive: -20.1%. As for `COc1ccc2oc(=O)c(-c3nc(-c4cc(OC)c(OC)c(OC)c4)no3)cc2c1`, the figure is inactive: 4.51%; as for `O=C(CNS(=O)(=O)c1cccs1)N1CCN(c2ccccc2Cl)CC1`, inactive: 79.8%; as for `CCC(=O)c1ccc2c(c1)N(CCCN(C)C)c1ccccc1S2`, inactive: -6.2%. As for `O=C(Cn1cc(SCc2cccc(F)c2)c2ccccc21)N1CCCC1`, the figure is inactive: 0.792%.

As for `Cc1ccc2c(CNCc3cccc(Cl)c3)c(C(=O)O)n(Cc3ccc(F)cc3Cl)c2c1`, the “activity change, negative = inhibition” value is inactive: -5.03%. As for `Cc1cc2oc(C(=O)Nc3sc4c(c3C(=O)NCc3ccco3)CCC4)cc(=O)c2cc1C`, the “activity change, negative = inhibition” value was inactive: -22.9%. As for `Cc1ccc(C(=O)Nc2ccc3nc(SCC(=O)N4CCc5ccccc54)sc3c2)cc1`, the figure is inactive: -0.84%; as for `COc1ccc(N2CCN(C(=O)c3cnc(N4CCCC4)nc3C)CC2)cc1`, inactive: -7.86%. As for `CCC(Sc1nc2ccccc2c2nc(CCc3c(C)n[nH]c3C)nn12)C(=O)Nc1ccc(F)cc1` (stereo unspecified), the figure is inactive: -5.7%. As for `Cc1c(Cl)cccc1NC(=O)N1CCC(CN2CCCC2)CC1`, the figure is inactive: -16.1%; as for `COc1cccc(-n2nnc3c(sc4nc(C)cc(C)c43)c2=O)c1`, inactive: 17.3%; as for `O=C(Nc1sc2c(c1C(=O)Nc1ccccc1Cl)CCCC2)c1ccccc1F`, inactive: 7.8%.

Take `COC(=O)c1c(NC(=O)c2cc(=O)c3ccc(C)c(C)c3o2)sc2c1CCCC2`: the “activity change, negative = inhibition” value is inactive: 10.1%. As for `O=C(NCc1ccccc1Br)C1CCCN(C(=O)N2CCOc3ccccc32)C1` (stereo unspecified), the figure is inactive: -25.9%; as for `CCCCN(CCCC)CC(O)c1cc(Cl)cc2c1-c1ccc(Cl)cc1C2=Cc1ccc(Cl)cc1` (stereo unspecified), inactive: -8.38%; as for `COc1ccc(-c2cc3nc(-c4ccccc4)cc(C(F)(F)F)n3n2)cc1`, inactive: -8.77%. As for `COc1ccc(CCNC(=O)Cc2c(C)c3c(cc(C)c4c(C)coc43)oc2=O)cc1`, the figure is inactive: 0.467%; as for `COC(=O)c1cc(NC(=O)c2oc(=O)c3ccccc3c2-c2ccccc2)cc(C(=O)OC)c1`, inactive: -7.57%; as for `Cc1ccc(NC(=O)CN2C(=O)CSc3ccc(S(=O)(=O)N4CCCC4)cc32)cc1F`, inactive: -10.1%. As for `Cc1ccc(NC(=O)c2c(NC(=O)c3ccco3)sc3c2CCC(C(C)(C)C)C3)c(C)c1` (stereo unspecified), the figure is inactive: -20% [at 11.5 µM]. For the compound `O=C(Cc1ccc(F)cc1)NC1CC(=O)N(c2ccc3c(c2)OCCO3)C1` (stereo unspecified), the “activity change, negative = inhibition” value was inactive: -11.7%.
